About 14,000 (4.5%) of roughly 310,000 compounds showed an effect of 50% or more. Effects have a minus sign here. The list shows a part of the results.
The molecules below were run against human ether-à-go-go-related gene (hERG) potassium channel (human, UniProt Q12809) (assay: primary screen, population patch clamp on CHO cells stably expressing hERG).
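Further: peak tail current of the secondary pulse compared with the same well before compound.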

human ether-à-go-go-related gene (hERG) potassium channel, sequence (Q12809 whole entry, looked up): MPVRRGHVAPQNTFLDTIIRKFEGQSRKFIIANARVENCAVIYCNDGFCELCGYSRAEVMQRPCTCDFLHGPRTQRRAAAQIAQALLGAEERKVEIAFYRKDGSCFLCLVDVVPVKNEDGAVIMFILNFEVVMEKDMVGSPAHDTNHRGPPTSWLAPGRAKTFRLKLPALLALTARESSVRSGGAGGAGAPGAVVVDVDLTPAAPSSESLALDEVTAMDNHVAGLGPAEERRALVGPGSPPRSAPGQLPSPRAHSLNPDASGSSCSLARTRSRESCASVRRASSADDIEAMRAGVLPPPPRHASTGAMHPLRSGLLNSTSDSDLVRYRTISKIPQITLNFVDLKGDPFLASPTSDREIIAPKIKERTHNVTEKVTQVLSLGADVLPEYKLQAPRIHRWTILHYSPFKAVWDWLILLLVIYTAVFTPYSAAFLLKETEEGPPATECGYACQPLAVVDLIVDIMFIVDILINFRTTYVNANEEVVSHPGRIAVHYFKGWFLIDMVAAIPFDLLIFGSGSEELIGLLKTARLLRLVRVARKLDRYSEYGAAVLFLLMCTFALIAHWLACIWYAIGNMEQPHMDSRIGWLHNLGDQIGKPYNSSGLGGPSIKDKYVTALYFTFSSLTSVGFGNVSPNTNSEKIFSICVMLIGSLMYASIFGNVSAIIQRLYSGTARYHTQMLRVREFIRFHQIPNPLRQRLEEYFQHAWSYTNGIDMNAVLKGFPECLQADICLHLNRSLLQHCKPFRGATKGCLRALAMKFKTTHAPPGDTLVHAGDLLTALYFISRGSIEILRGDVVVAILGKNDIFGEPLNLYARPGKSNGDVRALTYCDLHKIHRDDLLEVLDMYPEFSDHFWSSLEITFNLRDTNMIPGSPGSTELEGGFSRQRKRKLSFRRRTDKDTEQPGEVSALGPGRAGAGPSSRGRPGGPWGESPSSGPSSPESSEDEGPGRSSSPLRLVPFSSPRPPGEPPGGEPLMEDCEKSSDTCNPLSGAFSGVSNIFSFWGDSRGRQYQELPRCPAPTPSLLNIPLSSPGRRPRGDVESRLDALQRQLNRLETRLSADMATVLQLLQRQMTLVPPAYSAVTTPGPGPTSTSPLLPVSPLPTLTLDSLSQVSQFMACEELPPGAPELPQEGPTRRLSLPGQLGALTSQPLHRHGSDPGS

SMILES	hERG current change (%, negative = inhibition) at 10uM [%]
CC(=O)c1ccc(NC(=O)CSCC(=O)Nc2ccc3ccccc3c2)cc1	12
Cn1c(=O)c2c(SCC(N)=O)nc(CC(C)(C)C)nc2n(C)c1=O	-10.5
CCc1nnc(NC(=O)C2CCCN(S(=O)(=O)c3ccc(OC)cc3)C2)s1 (stereo not shown)	7.4
O=C(NNCc1ccc(O)cc1)c1ccccc1Cl	5.16
CCCNC(=O)CSc1nnc(-c2ccco2)n1C	-2.38
O=C(NCc1ccco1)c1cc2c(s1)CCCCC2	-8.23
Cc1ccc(OCC(=O)NS(=O)(=O)c2ccc(Cl)cc2)cc1	17.9
CCOC(=O)C(NC(=O)CC)(Nc1sc(C)c(CC)c1C#N)C(F)(F)F (stereo not shown)	-16.8
CC(NCc1ccc(F)cc1)C(=O)Nc1cc(S(=O)(=O)N2CCCCC2)ccc1Cl (stereo not shown)	-15.9
Cc1cccc(NC(=O)c2cc(NC(=O)C3CCCCC3C(=O)O)ccc2N2CCCCC2)c1 (stereo not shown)	-22.5
COc1ccc2c(CC(=O)N[C@@H](Cc3ccccc3)C(=O)O)cc(=O)oc2c1	1.26
O=C(N1CCN(c2ccccc2)CC1)C1(S(=O)(=O)c2ccc(Cl)cc2)CC1	-42.1
O=C(NCc1ccco1)c1ccc(C(=O)NCc2ccco2)s1	4.05
CCCn1c(=O)[nH]c(=O)c2c1nc(-c1ccc(C#N)cc1)n2CCOC	-2.78
COc1cccc(C(=O)Nc2cc(=O)n(C)c(=O)n2C)c1OC	13.1
Cc1cc(C)c(OCC(=O)NCC2COc3ccccc3O2)c(C)c1 (stereo not shown)	-13.9
CC(C)CC(C(=O)Nn1cnnc1)N1C(=O)c2ccccc2C1=O (stereo not shown)	3.91
NC(=O)c1ccccc1NC(=O)CN1CCN(Cc2ccccc2)CC1	-78.3
CNC(=O)c1cnc(-c2ccccc2)nc1-c1ccccc1	9.63
O=S(=O)(c1ccccc1)[C@@]1(c2ccc(Br)cc2)C[C@@H]2ON=C(c3cccc(Br)c3)[C@@H]2C1	-12
O=C(NC1CC1)C1CC(=O)N(c2cccc(Cl)c2Cl)C1 (stereo not shown)	16.8
CCCc1nc(SCC(=O)NC2CC2)c2c(C)c(C)sc2n1	-26.2

SMILES	hERG current change (%, negative = inhibition) at 10uM [%]
CCOC(=O)C(=CNc1ccc2c(c1)nnn2-c1ccc(Cl)cc1)C(=O)OCC	-5.02
COc1cc(C(=O)ON=C2C=C(C)C(=O)C(C)=C2)cc(OC)c1OC	-6.3
Cc1ccc2nsnc2c1N	-0.661
CC(CN1CCN(Cc2ccccc2)CC1)OC(=O)c1ccco1.Cl (stereo not shown)	-24.1
c1ccc(-c2csc3nnc(SCc4ccc5c(c4)OCO5)n23)cc1	-71.4
CCCCCOC(=O)c1[nH]c2c(c1C)C(=O)C(C(=O)OC)C(C)C2 (stereo not shown)	9.31
Cc1ccccc1Cn1nc(C)c(NC(=O)C2c3ccccc3Oc3ccccc32)c1C	1.65
CCN1C(=O)C(CC(=O)Nc2ccc(OC)cc2)N(CCc2ccccc2F)C1=S (stereo not shown)	-24.2
CC(=O)/C(=N/Nc1ccccc1[N+](=O)[O-])N1CCCc2ccccc21	3.36
Cc1nc2cc(C)c(C)cc2s1	15.7
C=CCOc1ccccc1CN(CCc1ccccc1)C(=O)c1cccc(S(C)(=O)=O)c1	-26.3
CC12CCC(=O)N1C(C(=O)OCC(=O)Nc1sccc1C#N)CS2 (stereo not shown)	12.7
Cc1[nH]c(=O)[nH]c(=O)c1S(=O)(=O)N1CCOCC1	3.26
Nc1nnc(N2CCCCCC2)s1	-28.4
O=C(Nc1ccccc1Br)c1ccc(OC(=S)N2CCOCC2)cc1	25.6
COC(=O)c1ccc(C(=O)OC)c(NC(=O)C(C)(C)C)c1	20.7
Cc1cc(C)c2c(-n3cccc3)c(C(=O)NNS(=O)(=O)c3ccc(Br)cc3)sc2n1	-24.3
NC(=O)c1c(NC(=O)CN2C(=O)CCC2=O)sc2c1CCCCC2	7.57
Cn1c(=O)n(C)c2cc([N+](=O)[O-])c(N3CCN(C(=O)c4cccc(Cl)c4)CC3)cc21	-64.2
CCOCCOC(=O)C1=C(C)N(C)C(=O)NC1c1cc(Cl)c(O)c(OC)c1 (stereo not shown)	8.63
COc1ccc(CNC(=O)c2ccc(N3CCC4(CC3)CC(c3ccc(Cl)cc3)=NO4)c(N)c2)cc1	6.61
CCC(C(=O)N1CCN(S(=O)(=O)c2sc(C(=O)O)c(C)c2C(=O)O)CC1)c1ccccc1 (stereo not shown)	20.2

SMILES	hERG current change (%, negative = inhibition) at 10uM [%]
CC1CCCC(C)N1C(=O)c1cc2ncc(CCCl)cn2n1 (stereo not shown)	10.7
Cc1ccc(O)c(NC(=O)C2CC(c3c(F)cccc3Cl)=NO2)c1 (stereo not shown)	3.65
CCN(CC)CCN(Cc1cc2cc3c(cc2[nH]c1=O)OCCO3)C(=S)NC	-23.2
Cc1cc[n+](CC(=O)c2cccc([N+](=O)[O-])c2)c2ccccc12.[Br-]	-58.8
O=C(c1ccccc1F)N1CCN(c2ccccn2)CC1	4.54
COC(=O)C1=C(C)NC(C)=C(C(=O)OC)C1C(=O)OCc1nnc(-c2ccccc2)o1	2.12
O=C(CCn1cnnn1)Nc1cccc(F)c1	21.3
Cc1ccc(OCC(=O)NCCO)cc1C	7.86
COc1cccc(OCC(=O)Nc2ccccc2NC(C)=O)c1	16.9
COc1ccc(NC(=O)c2c(C)nn(Cc3ccccc3Cl)c2Cl)cc1Cl	0.49
O=C(NC1(C(F)(F)F)C(=O)Nc2c1c(=O)[nH]c(=O)n2Cc1ccco1)C1CCCCC1 (stereo not shown)	20.7
COc1ccccc1N(CC(O)CN1C(C)CCCC1C)S(=O)(=O)c1ccccc1 (stereo not shown)	-18.1
CC1=C(C(=O)N2CCOCC2)C(c2c(F)cccc2F)NC(=O)N1 (stereo not shown)	26.6
O=C(CN1CCN(c2ccccn2)CC1)NC1CCCC1	-2.36
CCc1nnc(NS(=O)(=O)c2ccc(NC(=S)NC(=O)c3ccc(Br)cc3)cc2)s1	6.73
CCOC(=O)C1CCN(C(=O)c2cc3c(C)cc(C)cc3[nH]2)CC1	-15.2
COn1c2c(c3c4no[n+]([O-])c4ccc31)CCCC2	15.6
COc1cc(OC)cc(C(=O)OCn2nnc3ccccc3c2=O)c1	1.97
CN1CCN(C(=O)/C(=C/c2cccnc2)NC(=O)c2cccc(Br)c2)CC1	-2.87
CN(C)C(=O)N1CCC(C(=O)NCc2ccc3c(c2)OCO3)CC1	5.54
Cc1ccc(-n2c(=S)sc3c(=O)n(-c4ccccc4F)c(SCC(=O)O)nc32)cc1C	15.7
CSC1=NSC2=NC(=O)/C(=C\c3coc4ccccc4c3=O)C(=N)N12	-1.98

SMILES	hERG current change (%, negative = inhibition) at 10uM [%]
O=C(Nc1ccc(F)cc1)Nc1nnc(COc2ccccc2F)s1	-15.8
O=c1[nH]c2cc3c(cc2cc1CN(Cc1cccnc1)Cc1nnnn1Cc1ccco1)OCCO3	-4.69
Br.Cc1nc2ncccn2c1-c1csc(Nc2ccc(S(N)(=O)=O)cc2)n1	0.703
C=CCn1c(SCC(=O)Nc2c(C)n(C)n(-c3ccccc3)c2=O)nc2ccccc2c1=O	-32.9
CCOP(=S)(OCC)c1ccc(N(C)C)cc1	-4.68
COc1ccc(/C(C)=N/Nc2ccc(F)cc2F)c(O)c1	6.58
Cc1ccc(S(=O)(=O)NCC(=O)NCC(=O)N2CCN(c3ncccn3)CC2)cc1C	-13.9
CCCC[C@@H]1CN=C(N)N1CCc1cccc(F)c1	-9.82
CCCCn1nc2cc(C(=O)NCc3ccco3)ccc2c1OCC	-9.45
O=C(CSc1ncccn1)NCCc1ccccc1	-7.71
CCSc1c(C(=O)NC)ccc2c1C(=O)c1ccccc1C2=O	8.37
Cc1ccc(NC(=O)CCCn2nc(C)c3c(C)n(-c4ccccc4)nc3c2=O)c(Cl)c1	19.4
O=C(COC(=O)c1cc(=O)[nH]c2ccccc12)Nc1cccc(S(=O)(=O)N2CCOCC2)c1	-3.01
C[n+]1nc(Nc2ccccc2)sc1-c1ccc(O)cc1.[Cl-]	-2.05
COc1ccccc1NC(=O)c1cc(-c2ccc(C)o2)nc2ccccc12	-60.7
Cc1nn(C(=O)c2ccco2)c(C)c1CN1C(=O)c2ccccc2C1=O	-12.2
Nc1ccc(Br)cc1-c1nc2ccccc2[nH]c1=O	3.68
CN(C(=O)COC(=O)c1nc(Cl)ccc1Cl)C1CCS(=O)(=O)C1 (stereo not shown)	11.5
c1ccc(CC2CCN(C(c3cccs3)c3nnnn3C3CCCC3)CC2)cc1 (stereo not shown)	2.61
Cc1c(C(=O)Nc2ccccc2)cn2c(nc3ccccc32)c1C#N	6.24
COc1cccc(CNC(=O)C2CCN(S(=O)(=O)N3CCCCC3)CC2)c1	-18.1
COc1ccc(S(=O)(=O)N2CCN(C(C)C(=O)Nc3ccc(C(C)C)cc3)CC2)cc1 (stereo not shown)	-20.6

Reference: PMC4336329 (PLoS ONE, 2015)
